# Assay results taken from the supplement of paper PMC10369915.
# The other results are listed elsewhere or left out. Cut-off read from the data, not from the text of the source: active = 3.2 or more and inactive = the rest. Most of these values are background signal.
# B1: ANKK1_HUMAN_178 (peptide)
# chain: EQSTRMQYIERSALR
# B2: MY18A_HUMAN_2035 (peptide)
# chain: DNTSRPRYSHSYLSD
# B3: MK12_HUMAN_185 (peptide)
# chain: ADSEMTGYVVTRWYR
# B4: MK15_HUMAN_177 (peptide)
# chain: EDQAVTEYVATRWYR
# B5: MNS1_HUMAN_188_YA (peptide)
# chain: NKAKAQAYLDLEKQL
# B6: MK13_HUMAN_182_YA (peptide)
# chain: ADAEMTGYVVTRWAR
# B7: ANLN_HUMAN_671 (peptide)
# chain: SEDRDLLYSIDAYRS
# B8: MET_HUMAN_1349 (peptide)
# chain: STFIGEHYVHVNATY
# B9: MET_HUMAN_1356_YA (peptide)
# chain: AVHVNATYVNVKCVA
# B10: MK09_HUMAN_185_YA (peptide)
# chain: TNFMMTPYVVTRAAR
# B11: MYL3_HUMAN_130 (peptide)
# chain: KNKDTGTYEDFVEGL
# B12: MRP1_HUMAN_277 (peptide)
# chain: KQPVKVVYSSKDPAQ
# B13: MK15_HUMAN_177_YA (peptide)
# chain: EDQAVTEYVATRWAR
# B14: MIC19_HUMAN_49 (peptide)
# chain: SGSKSQRYSGAYGAS
# B15: MNS1_HUMAN_188 (peptide)
# chain: NKAKAQYYLDLEKQL
# B16: MMP1_HUMAN_360_YA (peptide)
# chain: GQNVLHGYPKDIASS
# B17: MYC_HUMAN_32 (peptide)
# chain: CDEEENFYQQQQQSE
# B18: MPZL1_HUMAN_263 (peptide)
# chain: NKSESVVYADIRKNG
# B19: MYH1_HUMAN_389 (peptide)
# chain: EVADKAAYLQNLNSA
# B20: ANK1_HUMAN_1073 (peptide)
# chain: MSRLCQDYDTIGPEG
# B21: MIC19_HUMAN_49_YA (peptide)
# chain: SGSKSQRYSGAAGAS
# B22: ANR11_HUMAN_1850 (peptide)
# chain: FACLSPGYYSPDYGL
# B23: MGRN1_HUMAN_411_YA (peptide)
# chain: AIPSAPLYEEITASG
# B24: MMP1_HUMAN_360 (peptide)
# chain: GQNVLHGYPKDIYSS
# B25: MUSK_HUMAN_751_YA (peptide)
# chain: FGLSRNIYSADAAKA
# B26: MK14_HUMAN_182 (peptide)
# chain: TDDEMTGYVATRWYR
# B27: MYH9_HUMAN_158_YA (peptide)
# chain: AAITDTAYRSMMQDR
# B28: MILR1_HUMAN_338 (peptide)
# chain: SYKSGYVYSELNFGG
# B29: MK14_HUMAN_182_YA (peptide)
# chain: TDDEMTGYVATRWAR
# B30: MYH9_HUMAN_158 (peptide)
# chain: YAITDTAYRSMMQDR
# B31: MET_HUMAN_1365 (peptide)
# chain: NVKCVAPYPSLLSSE
# B32: MOES_HUMAN_116 (peptide)
# chain: GILNDDIYCPPETAV
# B33: MTAP2_HUMAN_745 (peptide)
# chain: SMDEGDDYLPATTPA
# B34: MIXL1_HUMAN_20 (peptide)
# chain: EGAAFPAYRAPHAGG
# B35: MUC1_HUMAN_1229 (peptide)
# chain: SSTDRSPYEKVSAGN
# B36: MY18A_HUMAN_2035_YA (peptide)
# chain: DNTSRPRYSHSALSD
# Target: SHP2 C-SH2 domain E139D
# Assay: enrichment score (SH2-bound / input frequency) (ratio); bacterial display of known human phosphotyrosine sites (pTyr-Var adds point mutants) read by sequencing; higher = stronger binding; tyrosines were phosphorylated by kinases first
# Details: peptide library: Human pTyr
# 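Note: displayed peptides selected on beads carrying the immobilized SH2 domain, with library peptides lacking any tyrosine serving as negative controls.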
row,Binder,enrichment score
1,B1,inactive: 0.886
2,B2,inactive: 0.65
3,B3,inactive: 2.06
4,B4,inactive: 0.856
5,B5,inactive: 1.18
6,B6,inactive: 2.35
7,B7,inactive: 0.554
8,B8,inactive: 0.987
9,B9,inactive: 2.01
10,B10,inactive: 0.938
11,B11,inactive: 1.04
12,B12,inactive: 1.37
13,B13,inactive: 0.914
14,B14,inactive: 0.832
15,B15,inactive: 1.3
16,B16,inactive: 0.691
17,B17,inactive: 1.54
18,B18,active: 19

row,Binder,enrichment score
1,B19,inactive: 0.706
2,B20,inactive: 0.856
3,B21,inactive: 0.795
4,B22,inactive: 1.31
5,B23,inactive: 0.656
6,B24,inactive: 0.912
7,B25,inactive: 0.461
8,B26,inactive: 0.827
9,B27,inactive: 0.695
10,B28,inactive: 2.64
11,B29,inactive: 0.795
12,B30,inactive: 0.951
13,B31,inactive: 1.06
14,B32,inactive: 0.825
15,B33,inactive: 0.925
16,B34,inactive: 0.811
17,B35,inactive: 0.634
18,B36,inactive: 0.673

# Target: SHP2 C-SH2 domain wild-type
# Assay: as above
# Details: peptide library: Human pTyr
row,Binder,enrichment score
1,B1,inactive: 0.695
2,B2,inactive: 0.681
3,B3,inactive: 1.92
4,B4,inactive: 0.859
5,B5,inactive: 1.01
6,B6,inactive: 1.89
7,B7,inactive: 0.509
8,B8,inactive: 1.1
9,B9,inactive: 1.58
10,B10,inactive: 0.787
11,B11,inactive: 0.779
12,B12,inactive: 1.19
13,B13,inactive: 0.694
14,B14,inactive: 0.631
15,B15,inactive: 1.05
16,B16,inactive: 0.525
17,B17,inactive: 1.15
18,B18,active: 24.2

row,Binder,enrichment score
1,B19,inactive: 0.647
2,B20,inactive: 0.803
3,B21,inactive: 0.688
4,B22,inactive: 1.23
5,B23,inactive: 0.518
6,B24,inactive: 0.767
7,B25,inactive: 0.525
8,B26,inactive: 0.823
9,B27,inactive: 0.681
10,B28,active: 5.71
11,B29,inactive: 0.685
12,B30,inactive: 2.04
13,B31,inactive: 0.919
14,B32,inactive: 0.784
15,B33,inactive: 0.666
16,B34,inactive: 0.652
17,B35,inactive: 0.655
18,B36,inactive: 0.636

# Target: SHP2 N-SH2 domain L43F
# Assay: as above
# Details: peptide library: Human pTyr
row,Binder,enrichment score
1,B1,inactive: 0.619
2,B2,inactive: 0.817
3,B3,inactive: 1.9
4,B4,inactive: 0.832
5,B5,inactive: 0.982
6,B6,inactive: 1.88
7,B7,inactive: 0.556
8,B8,inactive: 1.06
9,B9,inactive: 1.7
10,B10,inactive: 0.948
11,B11,inactive: 0.834
12,B12,inactive: 1.19
13,B13,inactive: 0.687
14,B14,inactive: 0.787
15,B15,inactive: 0.891
16,B16,inactive: 0.579
17,B17,inactive: 0.837
18,B18,inactive: 1.12

row,Binder,enrichment score
1,B19,inactive: 0.709
2,B20,inactive: 0.742
3,B21,inactive: 0.717
4,B22,inactive: 1.26
5,B23,inactive: 0.722
6,B24,inactive: 0.878
7,B25,inactive: 0.704
8,B26,inactive: 0.752
9,B27,inactive: 0.78
10,B28,active: 14.7
11,B29,inactive: 0.733
12,B30,inactive: 0.733
13,B31,inactive: 1.09
14,B32,inactive: 0.87
15,B33,inactive: 0.791
16,B34,inactive: 0.674
17,B35,inactive: 0.623
18,B36,inactive: 0.731

# Target: SHP2 N-SH2 domain T42A
# Assay: as above
# Details: peptide library: Human pTyr
row,Binder,enrichment score
1,B1,inactive: 0.555
2,B2,inactive: 0.67
3,B3,inactive: 1.62
4,B4,inactive: 0.813
5,B5,inactive: 1.09
6,B6,inactive: 1.55
7,B7,inactive: 0.578
8,B8,inactive: 1.06
9,B9,inactive: 1.46
10,B10,inactive: 0.861
11,B11,inactive: 0.793
12,B12,inactive: 1.27
13,B13,inactive: 0.763
14,B14,inactive: 0.666
15,B15,inactive: 0.995
16,B16,inactive: 0.603
17,B17,inactive: 1.11
18,B18,active: 3.91

row,Binder,enrichment score
1,B19,inactive: 0.618
2,B20,inactive: 0.817
3,B21,inactive: 0.727
4,B22,inactive: 1.38
5,B23,inactive: 0.729
6,B24,inactive: 0.762
7,B25,inactive: 0.609
8,B26,inactive: 0.797
9,B27,inactive: 0.741
10,B28,active: 35.5
11,B29,inactive: 0.801
12,B30,inactive: 0.637
13,B31,inactive: 0.964
14,B32,inactive: 0.681
15,B33,inactive: 0.778
16,B34,inactive: 0.73
17,B35,inactive: 0.871
18,B36,inactive: 0.658

# Target: SHP2 N-SH2 domain T52S
# Assay: as above
# Details: peptide library: Human pTyr
row,Binder,enrichment score
1,B1,inactive: 0.702
2,B2,inactive: 0.665
3,B3,inactive: 1.94
4,B4,inactive: 0.956
5,B5,inactive: 1.21
6,B6,inactive: 1.85
7,B7,inactive: 0.637
8,B8,inactive: 0.927
9,B9,inactive: 1.99
10,B10,inactive: 0.766
11,B11,inactive: 0.858
12,B12,inactive: 1.21
13,B13,inactive: 0.693
14,B14,inactive: 0.855
15,B15,inactive: 1.02
16,B16,inactive: 0.647
17,B17,inactive: 1.07
18,B18,inactive: 1.01

row,Binder,enrichment score
1,B19,inactive: 0.707
2,B20,inactive: 1.33
3,B21,inactive: 0.809
4,B22,inactive: 1.58
5,B23,inactive: 0.807
6,B24,inactive: 0.809
7,B25,inactive: 0.503
8,B26,inactive: 0.898
9,B27,inactive: 0.784
10,B28,active: 9.18
11,B29,inactive: 0.822
12,B30,inactive: 0.761
13,B31,inactive: 1.12
14,B32,inactive: 0.819
15,B33,inactive: 0.901
16,B34,inactive: 0.662
17,B35,inactive: 0.622
18,B36,inactive: 0.698

# Target: SHP2 N-SH2 domain wild-type
# Assay: as above
# Details: peptide library: Human pTyr
row,Binder,enrichment score
1,B1,inactive: 0.758
2,B2,inactive: 0.775
3,B3,inactive: 2.09
4,B4,inactive: 0.928
5,B5,inactive: 1.49
6,B6,inactive: 1.92
7,B7,inactive: 0.589
8,B8,inactive: 1.16
9,B9,inactive: 1.97
10,B10,inactive: 1.39
11,B11,inactive: 0.891
12,B12,inactive: 1.91
13,B13,inactive: 0.706
14,B14,inactive: 0.64
15,B15,inactive: 1.21
16,B16,inactive: 0.573
17,B17,inactive: 1.27
18,B18,inactive: 1.07

row,Binder,enrichment score
1,B19,inactive: 0.698
2,B20,inactive: 1.01
3,B21,inactive: 0.822
4,B22,inactive: 1.9
5,B23,inactive: 0.695
6,B24,inactive: 0.921
7,B25,inactive: 0.548
8,B26,inactive: 0.825
9,B27,inactive: 0.707
10,B28,inactive: 2.8
11,B29,inactive: 0.768
12,B30,inactive: 0.75
13,B31,inactive: 1.34
14,B32,inactive: 0.865
15,B33,inactive: 1.09
16,B34,inactive: 0.609
17,B35,inactive: 0.863
18,B36,inactive: 0.729
